Holding throughout (experiment): cell-based or functional assay
For assay [1], the target named is T1, BMP9 (UniProt Q9UK05 320-429).
T1 sequence (looked up): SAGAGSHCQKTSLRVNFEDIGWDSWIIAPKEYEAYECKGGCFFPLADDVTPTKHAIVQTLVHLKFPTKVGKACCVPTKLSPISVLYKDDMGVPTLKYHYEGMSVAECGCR

Assay [2] addresses T2, activin A (UniProt P08476 311-426).
T2 sequence (looked up): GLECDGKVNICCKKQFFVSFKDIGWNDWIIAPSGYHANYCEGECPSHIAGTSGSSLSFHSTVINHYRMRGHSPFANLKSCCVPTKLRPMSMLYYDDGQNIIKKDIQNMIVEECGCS

The target in assay [3] is T3, GDF11 (UniProt O95390 299-407).
T3 sequence (looked up): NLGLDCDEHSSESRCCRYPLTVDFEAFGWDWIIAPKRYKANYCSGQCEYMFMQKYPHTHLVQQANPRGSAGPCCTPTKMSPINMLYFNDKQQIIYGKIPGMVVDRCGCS

B1: ActRIIB(F82I)-G1Fc (Fc fusion)
chain: GRGEAETRECIYYNANWELERTNQSGLERCEGEQDKRLHCYASWRNSSGTIELVKKGCWLDDINCYDRQECVATEENPQVYFCCCEGNFCNERFTHLPEAGGPEVTYEPPPTAPTG[human IgG1 Fc and a few adjoining residues not shown]
notes: also called ActRIIB(F82I)-Fc
With B1, the “IC50, A204 pGL3(CAGA)12 luciferase reporter” value in assay [1] turned out to be 277 ng/ml; in assay [2], 11 ng/ml; in assay [3] it was 9 ng/ml.

B2: ActRIIB-Fc variant F82W/N83A (Fc fusion)
chain: GRGEAETRECIYYNANWELERTNQSGLERCEGEQDKRLHCYASWRNSSGTIELVKKGCWLDDWACYDRQECVATEENPQVYFCCCEGNFCNERFTHLPEAGGPEVTYEPPPTAPTG[human IgG1 Fc and a few adjoining residues not shown]
B2: the “IC50, A204 pGL3(CAGA)12 luciferase reporter” value in assay [1] is roughly 40000 ng/ml; in assay [3], 389 ng/ml.

B3: ActRIIB-Fc variant K55R (Fc fusion)
chain: GRGEAETRECIYYNANWELERTNQSGLERCEGEQDRRLHCYASWRNSSGTIELVKKGCWLDDFNCYDRQECVATEENPQVYFCCCEGNFCNERFTHLPEAGGPEVTYEPPPTAPTG[human IgG1 Fc and a few adjoining residues not shown]
For the molecule B3, the “IC50, A204 pGL3(CAGA)12 luciferase reporter” value in assay [1] was found to be 777 ng/ml; in assay [2], 206 ng/ml; in assay [3] it was 318 ng/ml.

B4: ActRIIB-Fc variant K74R (Fc fusion)
chain: GRGEAETRECIYYNANWELERTNQSGLERCEGEQDKRLHCYASWRNSSGTIELVRKGCWLDDFNCYDRQECVATEENPQVYFCCCEGNFCNERFTHLPEAGGPEVTYEPPPTAPTG[human IgG1 Fc and a few adjoining residues not shown]
As for B4, the “IC50, A204 pGL3(CAGA)12 luciferase reporter” value is 165 ng/ml in assay [1] and 45 ng/ml in assay [3].

B5: ActRIIB-Fc variant E52K (Fc fusion)
chain: GRGEAETRECIYYNANWELERTNQSGLERCEGKQDKRLHCYASWRNSSGTIELVKKGCWLDDFNCYDRQECVATEENPQVYFCCCEGNFCNERFTHLPEAGGPEVTYEPPPTAPTG[human IgG1 Fc and a few adjoining residues not shown]
Regarding B5, the “IC50, A204 pGL3(CAGA)12 luciferase reporter” value in assay [1] was roughly 10000 ng/ml; in assay [2], 762 ng/ml; in assay [3], 296 ng/ml.

B6: ActRIIB-Fc variant E50K (Fc fusion)
chain: GRGEAETRECIYYNANWELERTNQSGLERCKGEQDKRLHCYASWRNSSGTIELVKKGCWLDDFNCYDRQECVATEENPQVYFCCCEGNFCNERFTHLPEAGGPEVTYEPPPTAPTG[human IgG1 Fc and a few adjoining residues not shown]
Take B6: the “IC50, A204 pGL3(CAGA)12 luciferase reporter” value in assay [1] came to 721 ng/ml; in assay [2] it was 132 ng/ml; in assay [3] it was 180 ng/ml.

B7: ActRIIB-Fc variant F82W (Fc fusion)
chain: GRGEAETRECIYYNANWELERTNQSGLERCEGEQDKRLHCYASWRNSSGTIELVKKGCWLDDWNCYDRQECVATEENPQVYFCCCEGNFCNERFTHLPEAGGPEVTYEPPPTAPTG[human IgG1 Fc and a few adjoining residues not shown]
Regarding B7, the “IC50, A204 pGL3(CAGA)12 luciferase reporter” value in assay [3] was determined as 276 ng/ml.

B8: ActRIIB-Fc variant R40A (Fc fusion)
chain: GRGEAETRECIYYNANWELEATNQSGLERCEGEQDKRLHCYASWRNSSGTIELVKKGCWLDDFNCYDRQECVATEENPQVYFCCCEGNFCNERFTHLPEAGGPEVTYEPPPTAPTG[human IgG1 Fc and a few adjoining residues not shown]
As to B8, the “IC50, A204 pGL3(CAGA)12 luciferase reporter” value was 1210 ng/ml in assay [1] and 591 ng/ml in assay [3].

B9: ActRIIB-Fc variant K55D (Fc fusion)
chain: GRGEAETRECIYYNANWELERTNQSGLERCEGEQDDRLHCYASWRNSSGTIELVKKGCWLDDFNCYDRQECVATEENPQVYFCCCEGNFCNERFTHLPEAGGPEVTYEPPPTAPTG[human IgG1 Fc and a few adjoining residues not shown]
In the case of B9, the “IC50, A204 pGL3(CAGA)12 luciferase reporter” value in assay [1] came out at 5500 ng/ml; in assay [2] it was 396 ng/ml; in assay [3] it was 365 ng/ml.

B10: ActRIIB-Fc variant L79R (Fc fusion)
chain: GRGEAETRECIYYNANWELERTNQSGLERCEGEQDKRLHCYASWRNSSGTIELVKKGCWRDDFNCYDRQECVATEENPQVYFCCCEGNFCNERFTHLPEAGGPEVTYEPPPTAPTG[human IgG1 Fc and a few adjoining residues not shown]
On to B10, for which the “IC50, A204 pGL3(CAGA)12 luciferase reporter” value in assay [3] is 234 ng/ml.

B11: ActRIIB-Fc variant Y60K (Fc fusion)
chain: GRGEAETRECIYYNANWELERTNQSGLERCEGEQDKRLHCKASWRNSSGTIELVKKGCWLDDFNCYDRQECVATEENPQVYFCCCEGNFCNERFTHLPEAGGPEVTYEPPPTAPTG[human IgG1 Fc and a few adjoining residues not shown]
Regarding B11, the “IC50, A204 pGL3(CAGA)12 luciferase reporter” value in assay [3] was found to be 414 ng/ml.

B12: ActRIIB-Fc variant A24N (Fc fusion)
chain: GRGENETRECIYYNANWELERTNQSGLERCEGEQDKRLHCYASWRNSSGTIELVKKGCWLDDFNCYDRQECVATEENPQVYFCCCEGNFCNERFTHLPEAGGPEVTYEPPPTAPTG[human IgG1 Fc and a few adjoining residues not shown]
Consider B12, for which the entries for the “IC50, A204 pGL3(CAGA)12 luciferase reporter” value in assay [1], in assay [2] and in assay [3] were 409 ng/ml, 128 ng/ml and 99 ng/ml, respectively.

B13: ActRIIB-Fc variant E50P (Fc fusion)
chain: GRGEAETRECIYYNANWELERTNQSGLERCPGEQDKRLHCYASWRNSSGTIELVKKGCWLDDFNCYDRQECVATEENPQVYFCCCEGNFCNERFTHLPEAGGPEVTYEPPPTAPTG[human IgG1 Fc and a few adjoining residues not shown]
With B13, the “IC50, A204 pGL3(CAGA)12 luciferase reporter” value was roughly 3000 ng/ml in assay [1], 756 ng/ml in assay [2] and 638 ng/ml in assay [3].

B14: ActRIIB-Fc variant Y60P (Fc fusion)
chain: GRGEAETRECIYYNANWELERTNQSGLERCEGEQDKRLHCPASWRNSSGTIELVKKGCWLDDFNCYDRQECVATEENPQVYFCCCEGNFCNERFTHLPEAGGPEVTYEPPPTAPTG[human IgG1 Fc and a few adjoining residues not shown]
On to B14, for which the “IC50, A204 pGL3(CAGA)12 luciferase reporter” value in assay [3] is 544 ng/ml.

B15: ActRIIB-Fc variant E52A (Fc fusion)
chain: GRGEAETRECIYYNANWELERTNQSGLERCEGAQDKRLHCYASWRNSSGTIELVKKGCWLDDFNCYDRQECVATEENPQVYFCCCEGNFCNERFTHLPEAGGPEVTYEPPPTAPTG[human IgG1 Fc and a few adjoining residues not shown]
Take B15: the “IC50, A204 pGL3(CAGA)12 luciferase reporter” value in assay [1] came out at 359 ng/ml; in assay [2], 198 ng/ml; in assay [3], 71 ng/ml.

B16: ActRIIB(K55E)-G1Fc (Fc fusion)
chain: GRGEAETRECIYYNANWELERTNQSGLERCEGEQDERLHCYASWRNSSGTIELVKKGCWLDDFNCYDRQECVATEENPQVYFCCCEGNFCNERFTHLPEAGGPEVTYEPPPTAPTG[human IgG1 Fc and a few adjoining residues not shown]
For the molecule B16, the “IC50, A204 pGL3(CAGA)12 luciferase reporter” value in assay [1] is 290 ng/ml; in assay [2], 19 ng/ml; in assay [3], 14 ng/ml.

B17: ActRIIB-Fc variant L79K (Fc fusion)
chain: GRGEAETRECIYYNANWELERTNQSGLERCEGEQDKRLHCYASWRNSSGTIELVKKGCWKDDFNCYDRQECVATEENPQVYFCCCEGNFCNERFTHLPEAGGPEVTYEPPPTAPTG[human IgG1 Fc and a few adjoining residues not shown]
B17: the “IC50, A204 pGL3(CAGA)12 luciferase reporter” value in assay [3] worked out at 477 ng/ml.

B18: ActRIIB(K55A)-G1Fc (Fc fusion)
chain: GRGEAETRECIYYNANWELERTNQSGLERCEGEQDARLHCYASWRNSSGTIELVKKGCWLDDFNCYDRQECVATEENPQVYFCCCEGNFCNERFTHLPEAGGPEVTYEPPPTAPTG[human IgG1 Fc and a few adjoining residues not shown]
In the case of B18, the “IC50, A204 pGL3(CAGA)12 luciferase reporter” value in assay [1] worked out at 122 ng/ml; in assay [2], 15 ng/ml; in assay [3], 11 ng/ml.

B19: ActRIIB(F82K)-G1Fc (Fc fusion)
chain: GRGEAETRECIYYNANWELERTNQSGLERCEGEQDKRLHCYASWRNSSGTIELVKKGCWLDDKNCYDRQECVATEENPQVYFCCCEGNFCNERFTHLPEAGGPEVTYEPPPTAPTG[human IgG1 Fc and a few adjoining residues not shown]
B19: the “IC50, A204 pGL3(CAGA)12 luciferase reporter” value in assay [1] was roughly 5000 ng/ml; in assay [2] it was 10 ng/ml; in assay [3], 15 ng/ml.

Source of the values: patent US20240252628A1 (ACCELERON PHARMA, published 2024).
